# From PMC6212790
# Some of the results follow. At the low end of the ranking, values are background and their order means little.
# Target: T1, GST-Rok-C97-191 (UniProt O34857)
# T1 sequence: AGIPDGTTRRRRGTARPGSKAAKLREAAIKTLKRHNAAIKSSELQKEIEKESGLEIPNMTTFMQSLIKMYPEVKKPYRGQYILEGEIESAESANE
# Assay: protein binding microarray;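 further: rank score from −0.5 (least bound) to 0.5 (best bound)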
# Conditions: Rok is a gene silencer of Bacillus subtilis; high values mean tight binding; most listed sequences are background and not binding sites; double strand, one strand shown
row,Sequence,binding signal
1,AGGACGAG,-0.295 E-score
2,TAAGCTTA,0.0724 E-score
3,GGTTTGGA,-0.0233 E-score
4,CATTAAGA,-0.0232 E-score
5,CCATAGGG,-0.215 E-score
6,GGAGCCGA,-0.122 E-score
7,AATTTTTC,0.0422 E-score
8,ACACGTGA,-0.0605 E-score
9,AATGGTAG,0.441 E-score
10,AATGATCG,-0.0194 E-score
11,CCTATAGC,-0.0524 E-score
12,GCGAGGAC,-0.254 E-score
13,CCTCGCTA,-0.0957 E-score
14,CAAACGGG,-0.143 E-score
15,AATATATC,0.424 E-score
16,AACCCCCC,-0.253 E-score
17,GCTGTCCC,-0.151 E-score
18,CCCTCTCC,-0.322 E-score
19,CCCTGACG,-0.285 E-score
20,GAACCGCA,0.0149 E-score
21,ACAATTCC,0.14 E-score
22,GGAACGTA,0.0118 E-score

row,Sequence,binding signal
1,AGGGGACC,-0.326 E-score
2,GCGCCCTA,-0.153 E-score
3,CGTAGAGA,0.0853 E-score
4,CGGCATCA,-0.134 E-score
5,CAACGCTA,0.0222 E-score
6,AGCAGACT,-0.0772 E-score
7,GTACGAAA,0.156 E-score
8,AATGGCGG,-0.112 E-score
9,ACAGATAA,0.209 E-score
10,CAAGACGC,-0.162 E-score
11,GAGCCCAA,-0.17 E-score
12,GCTTGCGA,-0.104 E-score
13,GCGGCAGC,-0.314 E-score
14,CCGCACTA,0.0974 E-score
15,CTCCTCAG,-0.365 E-score
16,AGAATGTA,0.244 E-score
17,ACCTTTGC,-0.116 E-score
18,AGTCCGCG,-0.0669 E-score
19,GGATATGA,0.131 E-score
20,GGTGGCAA,-0.0889 E-score
21,AGTGATAA,0.201 E-score
22,AAACGGGT,0.00354 E-score

row,Sequence,binding signal
1,CAAACGCA,-0.121 E-score
2,ACGTGGAA,-0.198 E-score
3,CTACGTAG,0.291 E-score
4,CGTCGACG,-0.308 E-score
5,ACGTTGGA,-0.105 E-score
6,AAATGAGG,-0.0116 E-score
7,TAAGAGCA,-0.00935 E-score
8,ACGCTCCA,-0.142 E-score
9,CTCATTCA,-0.0696 E-score
10,ACACGTCG,-0.0369 E-score
11,CCAACCTC,-0.206 E-score
12,AGATGTAA,0.191 E-score
13,ATGGCGGG,-0.184 E-score
14,CGTCAAAC,-0.0621 E-score
15,GCTGCTTA,-0.133 E-score
16,GATGAGAA,0.0291 E-score
17,CAGCTTGA,-0.0891 E-score
18,AGGGTGAC,-0.321 E-score
19,TCACCGAA,-0.153 E-score
20,GTGATCTA,0.0717 E-score
21,ATAAACTA,0.359 E-score
22,ATCCGCTA,0.175 E-score

row,Sequence,binding signal
1,ATATCTCC,0.27 E-score
2,CGGTCTTC,-0.223 E-score
3,TGAACTCA,-0.127 E-score
4,GTACTCAA,-0.0487 E-score
5,ACAAGGAT,0.0455 E-score
6,GGTGTCAA,0.0604 E-score
7,GCAGGCGA,-0.121 E-score
8,ATGGTCTG,-0.205 E-score
9,AAACCATT,0.0833 E-score
10,CACGTCAC,0.0309 E-score
11,AGGGTTTC,-0.0738 E-score
12,GAGAAGGA,-0.326 E-score
13,AGTTGGAA,-0.0261 E-score
14,ATAGTTGA,0.215 E-score
15,CTGGGTAA,0.0335 E-score
16,AAGAGTCA,-0.165 E-score
17,CCACCAGG,-0.135 E-score
18,ATGGACCC,-0.138 E-score
19,ATACACGA,0.0518 E-score
20,ATAGGCAA,-0.102 E-score
